{
  "source": "the antibiotic and cytotoxicity screens of Wong et al. (2023)",
  "note": "Some of the results follow.",
  "data": [
    {"tested_on": "HSkMC (human skeletal muscle cells)", "test": "cytotoxicity call (relative viability < 0.9)", "conditions": "10 µM", "values": [
      {"smiles": "Oc1c(Cl)cc(Cl)c2cccnc12", "cytotoxicity call": "inactive"},
      {"smiles": "C[C@H]1CN([C@@H](C)CO)S(=O)(=O)c2ccc(-c3ccccc3F)cc2O[C@H]1CN(C)S(C)(=O)=O", "cytotoxicity call": "inactive"},
      {"smiles": "C[C@@H]1CCCCO[C@@H](CN(C)CC2CC2)[C@H](C)CN([C@@H](C)CO)C(=O)c2cc(NC(=O)Nc3cccc4ccccc34)ccc2O1", "cytotoxicity call": "inactive"},
      {"smiles": "C[C@@H]1CN([C@@H](C)CO)C(=O)c2cc(NS(=O)(=O)c3ccccc3)ccc2O[C@@H]1CN(C)S(=O)(=O)c1ccc(F)cc1", "cytotoxicity call": "inactive"},
      {"smiles": "COc1ccc(Nc2ccc(-c3ccncc3)s2)cc1Cl", "cytotoxicity call": "inactive"},
      {"smiles": "C[C@@H]1CN([C@@H](C)CO)C(=O)Cc2cc(NC(=O)Nc3cccc4ccccc34)ccc2O[C@@H]1CN(C)Cc1ccc2c(c1)OCO2", "cytotoxicity call": "inactive"},
      {"smiles": "C[C@H]1CN([C@@H](C)CO)C(=O)c2c(c3ccccc3n2C)-c2ccccc2CO[C@H]1CN(C)Cc1cccc2c1OCCCO2", "cytotoxicity call": "inactive"},
      {"smiles": "C[C@@H]1CCCCO[C@H](CN(C)C(=O)c2ccncc2)[C@H](C)CN([C@H](C)CO)C(=O)c2cc(NS(=O)(=O)c3cn(C)cn3)ccc2O1", "cytotoxicity call": "inactive"},
      {"smiles": "C[C@H](CO)N1C[C@H](C)[C@@H](CN(C)C(=O)Nc2ccc(C(F)(F)F)cc2)OCCCC[C@H](C)Oc2ccc(NS(=O)(=O)c3ccc(Cl)cc3)cc2C1=O", "cytotoxicity call": "inactive"},
      {"smiles": "Cc1noc(C)c1NC(=O)N[C@H]1CC[C@@H](CC(=O)N2CCN(C)CC2)O[C@H]1CO", "cytotoxicity call": "inactive"},
      {"smiles": "C[C@@H]1CN([C@H](C)CO)S(=O)(=O)c2ccc(C#Cc3cccc(F)c3)cc2O[C@@H]1CN(C)S(=O)(=O)c1ccccc1F", "cytotoxicity call": "inactive"},
      {"smiles": "COc1ccc2c(c1)n(CCN)c(=O)n2C(=O)[C@@H]1C[C@H](C)CC[C@H]1C(C)C", "cytotoxicity call": "active"},
      {"smiles": "COc1ccc(S(=O)(=O)N[C@@H]2C=C[C@@H](CC(=O)NCCc3ccncc3)O[C@@H]2CO)cc1", "cytotoxicity call": "inactive"},
      {"smiles": "C[C@@H]1CN([C@H](C)CO)C(=O)c2cccc(NS(=O)(=O)c3cn(C)cn3)c2O[C@@H]1CN(C)S(=O)(=O)c1ccc(Cl)cc1", "cytotoxicity call": "inactive"},
      {"smiles": "COc1ccc(S(=O)(=O)N(C)C[C@@H]2Oc3ccc(NS(=O)(=O)c4cccs4)cc3C(=O)N([C@H](C)CO)C[C@@H]2C)cc1", "cytotoxicity call": "inactive"},
      {"smiles": "O=C(CS(=O)(=O)c1cccc2nsnc12)N1CC(=O)N(CCc2ccccc2)C(=O)C1", "cytotoxicity call": "inactive"},
      {"smiles": "COc1ccc(NC(=O)N(C)C[C@@H]2OCCCC[C@@H](C)Oc3ccc(NC(=O)CCC(F)(F)F)cc3C(=O)N([C@H](C)CO)C[C@H]2C)cc1", "cytotoxicity call": "inactive"},
      {"smiles": "C[C@@H]1CN([C@@H](C)CO)C(=O)c2cccc(NS(=O)(=O)c3cccs3)c2O[C@@H]1CN(C)C(=O)Nc1cccc2ccccc12", "cytotoxicity call": "inactive"},
      {"smiles": "C[C@H](CO)N1C[C@H](C)[C@H](CN(C)C(=O)Nc2cccc3ccccc23)OCCCC[C@H](C)Oc2ccc(NC(=O)Nc3ccc(C(F)(F)F)cc3)cc2C1=O", "cytotoxicity call": "inactive"},
      {"smiles": "CCCC[C@@H](C)/C=C(C)/C=C(\\C)C(=O)NC1=C[C@@](O)(/C=C/C=C/C=C/C(=O)NC2C(=O)CCC2=O)[C@@H]2O[C@@H]2C1=O", "cytotoxicity call": "active"},
      {"smiles": "NCC[C@@H]1CC[C@@H](NC(=O)C2CC2)[C@H](CO)O1", "cytotoxicity call": "inactive"},
      {"smiles": "CC(=O)N1C[C@@H]2C(=O)N(C)C3(CCN(S(=O)(=O)Cc4ccccc4)CC3)[C@H]2C1", "cytotoxicity call": "inactive"},
      {"smiles": "COc1ccc(CN(C)C[C@H]2OCCCC[C@H](C)Oc3ccc(NC(=O)Nc4ccccc4)cc3C(=O)N([C@@H](C)CO)C[C@H]2C)cc1", "cytotoxicity call": "inactive"},
      {"smiles": "C[C@H](CO)N1C[C@H](C)[C@@H](CN(C)C(=O)CCC(F)(F)F)OCc2ccccc2-c2c(n(C)c3ccccc23)C1=O", "cytotoxicity call": "inactive"},
      {"smiles": "Cc1noc(C)c1NC(=O)Nc1ccc2c(c1)CC(=O)N([C@@H](C)CO)C[C@@H](C)[C@@H](CN(C)CC1CC1)O2", "cytotoxicity call": "inactive"},
      {"smiles": "C[C@H](CO)N1C[C@H](C)[C@H](CN(C)S(=O)(=O)c2ccc(Cl)cc2)Oc2c(NC(=O)c3ccc(-c4nccs4)cc3)cccc2C1=O", "cytotoxicity call": "inactive"},
      {"smiles": "C[C@@H]1CCCCO[C@@H](CN(C)S(=O)(=O)c2ccc(F)cc2)[C@H](C)CN([C@H](C)CO)C(=O)c2cc(NC(=O)Nc3ccc4c(c3)OCO4)ccc2O1", "cytotoxicity call": "inactive"},
      {"smiles": "O=c1ccn(C2OC(CO)C(O)C2O)c(=O)[nH]1", "note": "(centres undefined)", "cytotoxicity call": "inactive"},
      {"smiles": "C[C@@H]1CN([C@H](C)CO)C(=O)c2cccc(NC(=O)c3nc4ccccc4s3)c2O[C@H]1CN(C)C(=O)Nc1ccc(F)cc1", "cytotoxicity call": "inactive"},
      {"smiles": "COc1ccc(NC(=O)Nc2cccc3c2O[C@@H](CN(C)CC2CCCCC2)[C@@H](C)CN([C@H](C)CO)C3=O)cc1", "cytotoxicity call": "inactive"}
    ]},
    {"tested_on": "HepG2", "test": "cytotoxicity call (relative viability < 0.9)", "conditions": "10 µM", "values": [
      {"smiles": "C[C@H]1CN([C@@H](C)CO)C(=O)c2cccc(NC(=O)C3CCCCC3)c2O[C@H]1CN(C)Cc1ccc(Oc2ccccc2)cc1", "cytotoxicity call": "inactive"},
      {"smiles": "CCS(=O)(=O)Nc1ccc2c(c1)C(=O)N(C)[C@H]1CC[C@@H](CC(=O)N[C@H]3CCN(Cc4ccccc4)C3)O[C@@H]1CO2", "cytotoxicity call": "inactive"},
      {"smiles": "C[C@H]1CN([C@@H](C)CO)C(=O)c2cc(NS(=O)(=O)c3ccc(F)cc3)ccc2O[C@@H]1CN(C)S(=O)(=O)c1ccccc1", "cytotoxicity call": "inactive"},
      {"smiles": "C[C@@H]1CCCCO[C@H](CN(C)C(=O)Nc2ccc(F)cc2)[C@@H](C)CN([C@@H](C)CO)C(=O)c2cc(NS(=O)(=O)c3cccs3)ccc2O1", "cytotoxicity call": "inactive"},
      {"smiles": "C[C@@H]1CN([C@@H](C)CO)C(=O)c2cc(NS(=O)(=O)c3cn(C)cn3)ccc2O[C@H]1CN(C)CC1CC1", "cytotoxicity call": "inactive"},
      {"smiles": "C[C@H](CO)N1C[C@H](C)[C@@H](CN(C)S(=O)(=O)c2cccs2)Oc2c(NC(=O)c3cnccn3)cccc2C1=O", "cytotoxicity call": "inactive"},
      {"smiles": "O=C1O[C@@H](c2ccccc2)[C@@H](c2ccccc2)N2[C@@H](c3ccc(OCCO)cc3)[C@]3(C(=O)Nc4ccc(C#CC5(O)CCCCCC5)cc43)[C@@H](C(=O)N3CCCCCCC3)[C@H]12", "cytotoxicity call": "inactive"},
      {"smiles": "COc1ccc(S(=O)(=O)Nc2ccc3c(c2)C(=O)N([C@@H](C)CO)C[C@@H](C)[C@H](CN(C)CC2CCCCC2)OCCCC[C@@H](C)O3)cc1", "cytotoxicity call": "inactive"},
      {"smiles": "NNC(=O)c1cc(=S)nc[nH]1", "cytotoxicity call": "inactive"},
      {"smiles": "COCC(=O)N(C)C[C@@H]1Oc2cc(C#CC(C)(C)O)ccc2S(=O)(=O)N([C@@H](C)CO)C[C@@H]1C", "cytotoxicity call": "inactive"},
      {"smiles": "Oc1c(Cl)cc(Cl)c2cccnc12", "cytotoxicity call": "active"},
      {"smiles": "C[C@H]1CN([C@@H](C)CO)S(=O)(=O)c2ccc(-c3ccccc3F)cc2O[C@H]1CN(C)S(C)(=O)=O", "cytotoxicity call": "inactive"},
      {"smiles": "C[C@@H]1CCCCO[C@@H](CN(C)CC2CC2)[C@H](C)CN([C@@H](C)CO)C(=O)c2cc(NC(=O)Nc3cccc4ccccc34)ccc2O1", "cytotoxicity call": "inactive"},
      {"smiles": "C[C@@H]1CN([C@@H](C)CO)C(=O)c2cc(NS(=O)(=O)c3ccccc3)ccc2O[C@@H]1CN(C)S(=O)(=O)c1ccc(F)cc1", "cytotoxicity call": "inactive"},
      {"smiles": "COc1ccc(Nc2ccc(-c3ccncc3)s2)cc1Cl", "cytotoxicity call": "inactive"},
      {"smiles": "C[C@@H]1CN([C@@H](C)CO)C(=O)Cc2cc(NC(=O)Nc3cccc4ccccc34)ccc2O[C@@H]1CN(C)Cc1ccc2c(c1)OCO2", "cytotoxicity call": "active"},
      {"smiles": "C[C@H]1CN([C@@H](C)CO)C(=O)c2c(c3ccccc3n2C)-c2ccccc2CO[C@H]1CN(C)Cc1cccc2c1OCCCO2", "cytotoxicity call": "inactive"},
      {"smiles": "C[C@@H]1CCCCO[C@H](CN(C)C(=O)c2ccncc2)[C@H](C)CN([C@H](C)CO)C(=O)c2cc(NS(=O)(=O)c3cn(C)cn3)ccc2O1", "cytotoxicity call": "inactive"},
      {"smiles": "C[C@H](CO)N1C[C@H](C)[C@@H](CN(C)C(=O)Nc2ccc(C(F)(F)F)cc2)OCCCC[C@H](C)Oc2ccc(NS(=O)(=O)c3ccc(Cl)cc3)cc2C1=O", "cytotoxicity call": "active"},
      {"smiles": "Cc1noc(C)c1NC(=O)N[C@H]1CC[C@@H](CC(=O)N2CCN(C)CC2)O[C@H]1CO", "cytotoxicity call": "inactive"},
      {"smiles": "C[C@@H]1CN([C@H](C)CO)S(=O)(=O)c2ccc(C#Cc3cccc(F)c3)cc2O[C@@H]1CN(C)S(=O)(=O)c1ccccc1F", "cytotoxicity call": "inactive"},
      {"smiles": "COc1ccc2c(c1)n(CCN)c(=O)n2C(=O)[C@@H]1C[C@H](C)CC[C@H]1C(C)C", "cytotoxicity call": "active"},
      {"smiles": "COc1ccc(S(=O)(=O)N[C@@H]2C=C[C@@H](CC(=O)NCCc3ccncc3)O[C@@H]2CO)cc1", "cytotoxicity call": "inactive"},
      {"smiles": "C[C@@H]1CN([C@H](C)CO)C(=O)c2cccc(NS(=O)(=O)c3cn(C)cn3)c2O[C@@H]1CN(C)S(=O)(=O)c1ccc(Cl)cc1", "cytotoxicity call": "inactive"},
      {"smiles": "COc1ccc(S(=O)(=O)N(C)C[C@@H]2Oc3ccc(NS(=O)(=O)c4cccs4)cc3C(=O)N([C@H](C)CO)C[C@@H]2C)cc1", "cytotoxicity call": "active"},
      {"smiles": "O=C(CS(=O)(=O)c1cccc2nsnc12)N1CC(=O)N(CCc2ccccc2)C(=O)C1", "cytotoxicity call": "inactive"},
      {"smiles": "COc1ccc(NC(=O)N(C)C[C@@H]2OCCCC[C@@H](C)Oc3ccc(NC(=O)CCC(F)(F)F)cc3C(=O)N([C@H](C)CO)C[C@H]2C)cc1", "cytotoxicity call": "inactive"},
      {"smiles": "C[C@@H]1CN([C@@H](C)CO)C(=O)c2cccc(NS(=O)(=O)c3cccs3)c2O[C@@H]1CN(C)C(=O)Nc1cccc2ccccc12", "cytotoxicity call": "inactive"},
      {"smiles": "C[C@H](CO)N1C[C@H](C)[C@H](CN(C)C(=O)Nc2cccc3ccccc23)OCCCC[C@H](C)Oc2ccc(NC(=O)Nc3ccc(C(F)(F)F)cc3)cc2C1=O", "cytotoxicity call": "inactive"},
      {"smiles": "CCCC[C@@H](C)/C=C(C)/C=C(\\C)C(=O)NC1=C[C@@](O)(/C=C/C=C/C=C/C(=O)NC2C(=O)CCC2=O)[C@@H]2O[C@@H]2C1=O", "cytotoxicity call": "active"},
      {"smiles": "NCC[C@@H]1CC[C@@H](NC(=O)C2CC2)[C@H](CO)O1", "cytotoxicity call": "inactive"},
      {"smiles": "CC(=O)N1C[C@@H]2C(=O)N(C)C3(CCN(S(=O)(=O)Cc4ccccc4)CC3)[C@H]2C1", "cytotoxicity call": "inactive"},
      {"smiles": "COc1ccc(CN(C)C[C@H]2OCCCC[C@H](C)Oc3ccc(NC(=O)Nc4ccccc4)cc3C(=O)N([C@@H](C)CO)C[C@H]2C)cc1", "cytotoxicity call": "inactive"},
      {"smiles": "C[C@H](CO)N1C[C@H](C)[C@@H](CN(C)C(=O)CCC(F)(F)F)OCc2ccccc2-c2c(n(C)c3ccccc23)C1=O", "cytotoxicity call": "inactive"}
    ]}
  ]
}
